# Assay results taken from the supplement of paper PMC11876631.
# ± gives the standard deviation of the averaged measurements. Laboratory Escherichia coli strains with one amino-acid change in an essential protein, pooled on minimal glucose agar with carbenicillin or gentamicin at twice the control MIC (plus kanamycin and chloramphenicol for the plasmids), 48 h. Fold change of barcode share against drug-free plates; higher = less susceptible. Active = above 20 in both replicates (the paper's putatively resistant). '<' = one read or none on drug, '>' = one read or none on a drug-free plate. Shares are relative, so most strains fall below 1 when a few take over. Listed are strains with at least 15 reads on both drug-free plates, and hits; most hits rest on fewer reference reads. Replicate rank correlation about 0.5. Edits are read from barcodes.
# B1: murG L100P (protein)
# chain: MSGQGKRLMVMAGGTGGHVFPGLAVAHHLMAQGWQVRWLGTADRMEADLVPKHGIEIDFIRISGLRGKGIKALIAAPLRIFNAWRQARAIMKAYKPDVVPGMGGYVSGPGGLAAWSLGIPVVLHEQNGIAGLTNKWLAKIATKVMQAFPGAFPNAEVVGNPVRTDVLALPLPQQRLAGREGPVRVLVVGGSQGARILNQTMPQVAAKLGDSVTIWHQSGKGSQQSVEQAYAEAGQPQHKVTEFIDDMAAAYAWADVVVCRSGALTVSEIAAAGLPALFVPFQHKDRQQYWNALPLEKAGAAKIIEQPQLSVDAVANTLAGWSRETLLTMAERARAASIPDATERVANEVSRVARA
# B2: murG V122A (protein)
# chain: MSGQGKRLMVMAGGTGGHVFPGLAVAHHLMAQGWQVRWLGTADRMEADLVPKHGIEIDFIRISGLRGKGIKALIAAPLRIFNAWRQARAIMKAYKPDVVLGMGGYVSGPGGLAAWSLGIPVALHEQNGIAGLTNKWLAKIATKVMQAFPGAFPNAEVVGNPVRTDVLALPLPQQRLAGREGPVRVLVVGGSQGARILNQTMPQVAAKLGDSVTIWHQSGKGSQQSVEQAYAEAGQPQHKVTEFIDDMAAAYAWADVVVCRSGALTVSEIAAAGLPALFVPFQHKDRQQYWNALPLEKAGAAKIIEQPQLSVDAVANTLAGWSRETLLTMAERARAASIPDATERVANEVSRVARA
# B3: murG V187Q (protein)
# chain: MSGQGKRLMVMAGGTGGHVFPGLAVAHHLMAQGWQVRWLGTADRMEADLVPKHGIEIDFIRISGLRGKGIKALIAAPLRIFNAWRQARAIMKAYKPDVVLGMGGYVSGPGGLAAWSLGIPVVLHEQNGIAGLTNKWLAKIATKVMQAFPGAFPNAEVVGNPVRTDVLALPLPQQRLAGREGPVRVLQVGGSQGARILNQTMPQVAAKLGDSVTIWHQSGKGSQQSVEQAYAEAGQPQHKVTEFIDDMAAAYAWADVVVCRSGALTVSEIAAAGLPALFVPFQHKDRQQYWNALPLEKAGAAKIIEQPQLSVDAVANTLAGWSRETLLTMAERARAASIPDATERVANEVSRVARA
# B4: murG V185Q (protein)
# chain: MSGQGKRLMVMAGGTGGHVFPGLAVAHHLMAQGWQVRWLGTADRMEADLVPKHGIEIDFIRISGLRGKGIKALIAAPLRIFNAWRQARAIMKAYKPDVVLGMGGYVSGPGGLAAWSLGIPVVLHEQNGIAGLTNKWLAKIATKVMQAFPGAFPNAEVVGNPVRTDVLALPLPQQRLAGREGPVRQLVVGGSQGARILNQTMPQVAAKLGDSVTIWHQSGKGSQQSVEQAYAEAGQPQHKVTEFIDDMAAAYAWADVVVCRSGALTVSEIAAAGLPALFVPFQHKDRQQYWNALPLEKAGAAKIIEQPQLSVDAVANTLAGWSRETLLTMAERARAASIPDATERVANEVSRVARA
# B5: murG V185W (protein)
# chain: MSGQGKRLMVMAGGTGGHVFPGLAVAHHLMAQGWQVRWLGTADRMEADLVPKHGIEIDFIRISGLRGKGIKALIAAPLRIFNAWRQARAIMKAYKPDVVLGMGGYVSGPGGLAAWSLGIPVVLHEQNGIAGLTNKWLAKIATKVMQAFPGAFPNAEVVGNPVRTDVLALPLPQQRLAGREGPVRWLVVGGSQGARILNQTMPQVAAKLGDSVTIWHQSGKGSQQSVEQAYAEAGQPQHKVTEFIDDMAAAYAWADVVVCRSGALTVSEIAAAGLPALFVPFQHKDRQQYWNALPLEKAGAAKIIEQPQLSVDAVANTLAGWSRETLLTMAERARAASIPDATERVANEVSRVARA
# B6: murG V187A (protein)
# chain: MSGQGKRLMVMAGGTGGHVFPGLAVAHHLMAQGWQVRWLGTADRMEADLVPKHGIEIDFIRISGLRGKGIKALIAAPLRIFNAWRQARAIMKAYKPDVVLGMGGYVSGPGGLAAWSLGIPVVLHEQNGIAGLTNKWLAKIATKVMQAFPGAFPNAEVVGNPVRTDVLALPLPQQRLAGREGPVRVLAVGGSQGARILNQTMPQVAAKLGDSVTIWHQSGKGSQQSVEQAYAEAGQPQHKVTEFIDDMAAAYAWADVVVCRSGALTVSEIAAAGLPALFVPFQHKDRQQYWNALPLEKAGAAKIIEQPQLSVDAVANTLAGWSRETLLTMAERARAASIPDATERVANEVSRVARA
# B7: murG L186A (protein)
# chain: MSGQGKRLMVMAGGTGGHVFPGLAVAHHLMAQGWQVRWLGTADRMEADLVPKHGIEIDFIRISGLRGKGIKALIAAPLRIFNAWRQARAIMKAYKPDVVLGMGGYVSGPGGLAAWSLGIPVVLHEQNGIAGLTNKWLAKIATKVMQAFPGAFPNAEVVGNPVRTDVLALPLPQQRLAGREGPVRVAVVGGSQGARILNQTMPQVAAKLGDSVTIWHQSGKGSQQSVEQAYAEAGQPQHKVTEFIDDMAAAYAWADVVVCRSGALTVSEIAAAGLPALFVPFQHKDRQQYWNALPLEKAGAAKIIEQPQLSVDAVANTLAGWSRETLLTMAERARAASIPDATERVANEVSRVARA
# B8: murG V122D (protein)
# chain: MSGQGKRLMVMAGGTGGHVFPGLAVAHHLMAQGWQVRWLGTADRMEADLVPKHGIEIDFIRISGLRGKGIKALIAAPLRIFNAWRQARAIMKAYKPDVVLGMGGYVSGPGGLAAWSLGIPVDLHEQNGIAGLTNKWLAKIATKVMQAFPGAFPNAEVVGNPVRTDVLALPLPQQRLAGREGPVRVLVVGGSQGARILNQTMPQVAAKLGDSVTIWHQSGKGSQQSVEQAYAEAGQPQHKVTEFIDDMAAAYAWADVVVCRSGALTVSEIAAAGLPALFVPFQHKDRQQYWNALPLEKAGAAKIIEQPQLSVDAVANTLAGWSRETLLTMAERARAASIPDATERVANEVSRVARA
# B9: murG V185P (protein)
# chain: MSGQGKRLMVMAGGTGGHVFPGLAVAHHLMAQGWQVRWLGTADRMEADLVPKHGIEIDFIRISGLRGKGIKALIAAPLRIFNAWRQARAIMKAYKPDVVLGMGGYVSGPGGLAAWSLGIPVVLHEQNGIAGLTNKWLAKIATKVMQAFPGAFPNAEVVGNPVRTDVLALPLPQQRLAGREGPVRPLVVGGSQGARILNQTMPQVAAKLGDSVTIWHQSGKGSQQSVEQAYAEAGQPQHKVTEFIDDMAAAYAWADVVVCRSGALTVSEIAAAGLPALFVPFQHKDRQQYWNALPLEKAGAAKIIEQPQLSVDAVANTLAGWSRETLLTMAERARAASIPDATERVANEVSRVARA
# B10: murG V122Q (protein)
# chain: MSGQGKRLMVMAGGTGGHVFPGLAVAHHLMAQGWQVRWLGTADRMEADLVPKHGIEIDFIRISGLRGKGIKALIAAPLRIFNAWRQARAIMKAYKPDVVLGMGGYVSGPGGLAAWSLGIPVQLHEQNGIAGLTNKWLAKIATKVMQAFPGAFPNAEVVGNPVRTDVLALPLPQQRLAGREGPVRVLVVGGSQGARILNQTMPQVAAKLGDSVTIWHQSGKGSQQSVEQAYAEAGQPQHKVTEFIDDMAAAYAWADVVVCRSGALTVSEIAAAGLPALFVPFQHKDRQQYWNALPLEKAGAAKIIEQPQLSVDAVANTLAGWSRETLLTMAERARAASIPDATERVANEVSRVARA
# B11: murG V185D (protein)
# chain: MSGQGKRLMVMAGGTGGHVFPGLAVAHHLMAQGWQVRWLGTADRMEADLVPKHGIEIDFIRISGLRGKGIKALIAAPLRIFNAWRQARAIMKAYKPDVVLGMGGYVSGPGGLAAWSLGIPVVLHEQNGIAGLTNKWLAKIATKVMQAFPGAFPNAEVVGNPVRTDVLALPLPQQRLAGREGPVRDLVVGGSQGARILNQTMPQVAAKLGDSVTIWHQSGKGSQQSVEQAYAEAGQPQHKVTEFIDDMAAAYAWADVVVCRSGALTVSEIAAAGLPALFVPFQHKDRQQYWNALPLEKAGAAKIIEQPQLSVDAVANTLAGWSRETLLTMAERARAASIPDATERVANEVSRVARA
# B12: murG L186W (protein)
# chain: MSGQGKRLMVMAGGTGGHVFPGLAVAHHLMAQGWQVRWLGTADRMEADLVPKHGIEIDFIRISGLRGKGIKALIAAPLRIFNAWRQARAIMKAYKPDVVLGMGGYVSGPGGLAAWSLGIPVVLHEQNGIAGLTNKWLAKIATKVMQAFPGAFPNAEVVGNPVRTDVLALPLPQQRLAGREGPVRVWVVGGSQGARILNQTMPQVAAKLGDSVTIWHQSGKGSQQSVEQAYAEAGQPQHKVTEFIDDMAAAYAWADVVVCRSGALTVSEIAAAGLPALFVPFQHKDRQQYWNALPLEKAGAAKIIEQPQLSVDAVANTLAGWSRETLLTMAERARAASIPDATERVANEVSRVARA
# B13: murG V185A (protein)
# chain: MSGQGKRLMVMAGGTGGHVFPGLAVAHHLMAQGWQVRWLGTADRMEADLVPKHGIEIDFIRISGLRGKGIKALIAAPLRIFNAWRQARAIMKAYKPDVVLGMGGYVSGPGGLAAWSLGIPVVLHEQNGIAGLTNKWLAKIATKVMQAFPGAFPNAEVVGNPVRTDVLALPLPQQRLAGREGPVRALVVGGSQGARILNQTMPQVAAKLGDSVTIWHQSGKGSQQSVEQAYAEAGQPQHKVTEFIDDMAAAYAWADVVVCRSGALTVSEIAAAGLPALFVPFQHKDRQQYWNALPLEKAGAAKIIEQPQLSVDAVANTLAGWSRETLLTMAERARAASIPDATERVANEVSRVARA
# B14: murG V122W (protein)
# chain: MSGQGKRLMVMAGGTGGHVFPGLAVAHHLMAQGWQVRWLGTADRMEADLVPKHGIEIDFIRISGLRGKGIKALIAAPLRIFNAWRQARAIMKAYKPDVVLGMGGYVSGPGGLAAWSLGIPVWLHEQNGIAGLTNKWLAKIATKVMQAFPGAFPNAEVVGNPVRTDVLALPLPQQRLAGREGPVRVLVVGGSQGARILNQTMPQVAAKLGDSVTIWHQSGKGSQQSVEQAYAEAGQPQHKVTEFIDDMAAAYAWADVVVCRSGALTVSEIAAAGLPALFVPFQHKDRQQYWNALPLEKAGAAKIIEQPQLSVDAVANTLAGWSRETLLTMAERARAASIPDATERVANEVSRVARA
# Target: Escherichia coli (laboratory strain)
# Experiment: barcode share on antibiotic plates over drug-free plates; higher = less susceptible
# Conditions: antibiotic: carbenicillin; 2× MIC (3.1 µg/mL)
# Procedure: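 A pool of E. coli strains, each edited to carry one amino-acid change in an essential protein, was grown for 48 h on minimal glucose agar with or without antibiotic; strain barcodes were sequenced; mean of two replicates.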
row,Protein,fold change of barcode share
1,B1,0.261 ± 0.23
2,B2,0.262 ± 0.037
3,B3,0.299 ± 0.018
4,B4,0.365 ± 0.011
5,B5,0.297 ± 0.15
6,B6,0.692 ± 0.018
7,B7,0.278 ± 0.08
8,B8,0.102 ± 0.05
9,B9,0.82 ± 0.047
10,B10,0.258 ± 0.11
11,B11,0.211 ± 0.076
12,B12,0.695 ± 0.075
13,B13,0.325 ± 0.058
14,B14,0.137 ± 0.046

# Same assay, conditions: antibiotic: gentamicin; 2× MIC (MIC 0.45 µg/mL)
row,Protein,fold change of barcode share
1,B3,0.00479 ± 0.0022
2,B4,< 0.00949
3,B5,0.00693 ± 0.0014
4,B6,0.00347 ± 0.0016
5,B7,0.397 ± 0.56
6,B9,< 0.00965
7,B12,0.00585 ± 0.0024
8,B13,< 0.0163
